According to PubChem BioAssay (NCI):
“And” between values parts separate entries of the source, which are not always exact repeats. Identical values can stand only once.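 Five compound concentrations were applied to cells in 96-well plates for 48 hours; endpoints were derived by simple linear interpolation of the resulting dose-response curve. GI50 marks 50% less growth. TGI is the concentration that stops growth completely.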 Peptide text beside a SMILES is read from it. * marks the point of attachment. Cbz = O=C(OCc1ccccc1)*

Test system: NCI-H322M lung
Assay: inhibition of tumour cell growth, NCI panel, 48 h

SMILES | TGI | GI50
CCN(CC)CCSc1c2ccccc2nc2c(OC)ccc(OC)c12 | 48.5 µM | –
Cc1ccc(S(=O)OCc2c(C)c(C)c(COS(=O)c3ccc(C)cc3)c(C)c2C)cc1 (stereo not given) | > 100 µM | –
COC(=O)C(C(=O)Cc1ccccc1[N+](=O)[O-])C(=O)OC | > 100 µM | –
CC(=O)NNc1nc(-c2ccc([N+](=O)[O-])cc2)c(C#N)c(=O)n1C | 55.7 µM | –
CCOC(=O)/C(=C/c1ccc(N(C)C)cc1)N(CC)CC | > 100 µM | –
COC(=O)c1cc2c(s1)-c1nccc3c1c(nc1ccccc13)C2=O | > 100 µM | > 100 µM
COC12OCCN(C)C1=CC(=O)C1=NNC(C)C12 (stereo not given) | > 100 µM | –
O=C1CCC/C=C\C[C@H]2C=CC(=O)/C2=C/C[C@H](C/C=C\CC(F)(F)F)O1 | 3.18 µM | 0.877 µM
C=CN1C(=O)[C@H](Oc2ccccc2)[C@@H]1c1ccccc1 | > 100 µM | –
CN(C)CCC(=O)C(=Cc1ccc(O)cc1)C(=O)CCN(C)C | > 100 µM | > 100 µM
Cc1ccc(Cl)c2c(=O)c3ccc(N)cc3sc12 | > 100 µM | –
Cn1c(Nc2ccc(C(F)(F)F)cc2)nc2cc(Oc3ccnc(-c4ncc(C(F)(F)F)[nH]4)c3)ccc21 | 15.7 µM | 0.114 µM
CN1C(=O)C2CCCC(=O)N2c2cccnc21 (stereo not given) | > 100 µM | –
Nc1ccccc1N=Cc1cc2cc([N+](=O)[O-])ccc2s1 | 46.4 µM | –
C#Cc1nc(Nc2cc(C)[nH]n2)c2ccccc2n1 | 3.24 µM | 0.86 µM
CC1(Br)Cc2ccccc2C1=O (stereo not given) | 25.7 µM | –
Cc1nc2cc(Nc3nc(Nc4ccc(F)cc4)nc(-c4cccs4)n3)ccc2n1Cc1ccccc1 | 85 µM | 21.4 µM
O=C1c2cc3c(cc2-c2c1c1cc(Cl)c(Cl)cc1c(=O)n2C[C@H](O)CO)OCO3 | 1.47 µM | 0.028 µM
CNCCCn1c2ccccc2c2c3c(c(-c4ccsc4)cc21)C(=O)NC3=O | 2.25 µM | –
O=C(N(O)c1ccccc1Cl)C(O)(c1ccccc1)c1ccccc1 | > 100 µM | –
c1ccc2c(c1)SCCC2NC1=NCCO1 (stereo not given) | > 100 µM | –
COC(=O)c1ccc(-c2c(C#N)[n+](=O)c3cc(Cl)c(Cl)cc3n2[O-])cc1 | 73.9 µM | 27.6 µM
CC1(C)OC2C(O)C(CO)OC2(C(F)F)O1 (stereo not given) | > 100 µM | –
Cc1c2cccc-2c(OCCO)cc2c3ccccc3n(C)c12 | 24.6 µM | –
O=C(Nc1ccc(Cl)c(C(F)(F)F)c1)c1ccc(NC2=C(Cl)C(=O)N(Cc3ccccc3)C2=O)cc1 | 32.8 µM | 17.7 µM

SMILES | TGI | GI50
C=CCc1ccc(O)c(-c2ccc(O)c(CC=C)c2)c1 | 31.1 µM | 15 µM
COc1ccc(/C(=C\C=C(C#N)C#N)Sc2nc3ccccc3s2)cc1 | 16.8 µM | 7.85 µM
FC(F)(F)c1ccc2c(c1)nc(-c1ccc(Cl)cc1)n2CC1CCCN2CCCCC12 (stereo not given) | 25.8 µM | –
N#Cc1c(-c2ccc(Cl)cc2)c(C#N)c(=O)n(NS(=O)(=O)c2ccccc2)c1O | > 100 µM | –
NCCc1cc(O)c(O)cc1O | > 78.7 µM | –
CC(=O)O[C@H]1CC[C@@]2(C)C(=CC[C@H]3[C@@H]4C/C(=C\c5ccc(N(C)C)cc5)[C@H](OC(C)=O)[C@@]4(C)CC[C@@H]32)C1 | 98.1 µM | –
O=[N+]([O-])c1cccc2ccc(N/N=C/c3ccccc3O)nc12 | > 100 µM | > 100 µM
COc1ccc(C2=C3SC=c4ccccc4=C3ON=C2c2ccccc2)cc1 | > 100 µM | –
CN(C)CCSc1cc(-c2ccccc2)c2ccccc2n1 | 32.3 µM | –
COC(C)(C)OCCN1CCN(CCN2C3=C(C=C(C(C)=O)C3)Sc3ccccc32)CC1 | 68.6 µM | –
CCc1nc(N)nc(N)c1-c1ccc([N+](C)(C)C)cc1 | > 100 µM | –
[N-]=[N+]=N/C1=C/CCCCC(=O)C1 | > 100 µM | –
COc1ccc(C2=C(c3ccc(OC)cc3)C(=O)N3CCCC3C2)cc1 (stereo not given) | > 100 µM | 17.7 µM
COc1cc2c3c(c1OC)-c1cc4c(cc1CC3(C#N)N(C(=O)c1ccccc1)CC2)OCO4 (stereo not given) | > 100 µM | –
CCOC(=O)/C=C(/C(=O)OCC)n1cnc2c(=O)[nH]c(NC(C)=O)nc21 | > 100 µM | –
COc1ccc(C(C#N)NNC(=O)Cc2ccccc2)cc1OC (stereo not given) | > 100 µM | –
O=C(Nc1ccc([N+](=O)[O-])cc1[N+](=O)[O-])C(=O)C(C(=O)c1ccc2ccccc2c1)C1OC(=O)c2ccccc21 (stereo not given) | 50 µM | –
O=C1CCC(=O)c2c1c(O)c1ccncc1c2O | 93 µM | –
CCOC(=O)NNC(=O)NCCCCNC(=O)NNC(=O)OCC | > 100 µM | –
CC1(C)N=C(N)N=C(N)N1c1ccc(CCCCc2ccc(Cl)c(S(=O)(=O)F)c2)c(Cl)c1 | 21.3 µM | 5.06 µM
CCc1c(Cl)c(C)cc(O)c1Cl | > 100 µM | –
CC(=O)N(C)CCc1c[nH]c2ccccc12 | > 100 µM | –
CC1CCN(C(=O)OCc2nc3nc(Cl)nc(N4CCOCC4)c3[nH]2)CC1 | 2.94 µM | 1.52 µM
C/C(=N\NC(=S)N1CCCCCC1)c1ccccn1 | 5.03 µM and 8.64 µM | < 0.0196 µM
COc1cc(/C=C/C(=O)c2cccc(-n3cc(-c4ccc(Cl)cc4)[nH]c3=O)c2)ccc1O | 22.4 µM | 5.52 µM

SMILES | TGI | GI50
NCC(=O)Nc1ccc(S(=O)(=O)O)c2cc(S(=O)(=O)O)cc(S(=O)(=O)O)c12 | > 100 µM | –
CS(=O)(=O)c1ccc(-c2cc(-c3ccc(S(C)(=O)=O)cc3)[n+](-c3cc(-c4ccccc4)c([O-])c(-c4ccccc4)c3)c(-c3ccc(S(C)(=O)=O)cc3)c2)cc1 | > 100 µM | –
O=[N+]([O-])c1ccc(-c2cnc3ccccn23)cc1 | > 100 µM | –
O=c1oc2c/c(=C\c3ccc([N+](=O)[O-])cc3)c(=O)c3cccc1c3-2 | > 100 µM | –
Clc1nc(Cl)nc(Nc2cccc3ccccc23)n1 | > 100 µM | > 100 µM
CC(Oc1ccc(Cl)cc1Cl)C(=O)NN1C(=O)CSC1c1ccccc1 (stereo not given) | > 100 µM | –
CC(NC(=O)C(NC(=O)OCc1ccccc1)C(C)C)C(=O)NCC(=O)O (stereo not drawn) (Cbz-Val-Ala-Gly-OH; configuration not given here) | > 100 µM | –
CC(C)OC(=O)[C@H](C)NP(=O)(OC[C@H]1O[C@@H](n2ccc(=O)[nH]c2=O)[C@](C)(F)[C@@H]1O)Oc1ccccc1 (stereo not given in full) | > 100 µM | > 100 µM
COC(=O)c1nsc(OC)c1Cl | > 100 µM | –
COc1ccc2c(C(=O)c3cn(CCN4CCOCC4)c4ccccc34)cccc2c1 | > 75.7 µM | –
COC(=O)C1=C(O)c2ccc(Cl)cc2S(=O)(=O)N1C | > 100 µM | –
COC(=O)c1ccc2c(c1)/C(=C\c1cc(Br)c(O)c(Br)c1)C(=O)N2 | > 25 µM | 9.4 µM
O=S(=O)(c1ccccc1)N1N=C2c3ccccc3CCC[C@H]2C1c1ccccc1 (stereo not given in full) | > 100 µM | –
[N-]=[N+]=CC(=O)OC1Cc2ccccc2C1 | > 100 µM | –
COc1cccc(C2c3cc4c(cc3OC(C)(N3CCCC3)C2C)OCO4)c1 (stereo not given) | > 100 µM | –
O=c1c2ncn(C3CCCO3)c2n(-c2ccccc2)c(=S)n1-c1ccccc1 (stereo not given) | > 100 µM | –
C=C(C)C1CCC2(C)CC1c1c(c(C)cc3c1[nH]c1ccccc13)O2 (stereo not given) | > 25 µM | –
COc1ccccc1Nc1ncc(-c2ccccc2)o1 | > 25 µM | > 25 µM
Nc1c(C(=O)c2ccccc2)cnn1-c1ccc(F)cc1 | > 25 µM | > 25 µM
CC(C)[Si]1(C(C)C)OCC2OC3(CO)C(Oc4nc(=O)ccn43)C2O[Si](C(C)C)(C(C)C)O1 (stereo not given) | 32.2 µM | –
CCOC(=O)Cc1ccc(Nc2nc3ccccc3nc2C(=O)OCC)cc1 | > 100 µM | –
COC(=O)/C=C\C(C#N)(C#N)N=Cc1cc(Br)cs1 | 29.4 µM | –
Cn1c2ccccc2c(=O)c2cccc(C(=O)NC(CS)C(=O)O)c21 (stereo not given) | > 100 µM | –
